# ± gives the standard deviation of the averaged measurements. Whole data set: some 33,000 sequences, median “E-score (dimensionless, -0.5 to 0.5)” near -0.049, cut for the highest 2% near 0.37. The list shows a part of the results.
# Test system: T1, PmTbr T-box DNA-binding domain (GST fusion)
# T1 sequence: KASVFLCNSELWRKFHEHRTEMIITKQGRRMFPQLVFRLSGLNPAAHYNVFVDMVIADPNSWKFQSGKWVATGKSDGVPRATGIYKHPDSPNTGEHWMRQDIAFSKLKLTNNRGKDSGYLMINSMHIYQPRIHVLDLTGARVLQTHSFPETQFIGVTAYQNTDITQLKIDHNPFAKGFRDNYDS
# Assay: PBM E-score of 8-mer (E-score (dimensionless, -0.5 to 0.5)); Tbr is Tbrain of the sea star Patiria miniata (Pm) or the sea urchin Strongylocentrotus purpuratus (Sp); higher = stronger binding preference; most listed sequences are background and not binding sites
# Details: the construct has about 5 more residues each side
# Protocol: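 Universal protein-binding microarray (Agilent AMADID 016060, 60-bp probes with a 35-bp variable region) incubated with 200 nM GST-fused Patiria miniata Tbr T-box DNA-binding domain (residues 272-466) in PBS pH 7.5. Scored for every ungapped 8-mer (given with its reverse complement) by the Universal PBM Analysis Suite as E-score (modified Wilcoxon-Mann-Whitney enrichment, range -0.5 to 0.5; >0.45 counts as bound) and Z-score of median probe intensity. Two replicate arrays (datasets 1 and 2).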
# 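Note: 200 nM protein in PBS on universal arrays averaged over duplicate arrays.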
row,Sequence,PBM E-score of 8-mer
1,GAATAGTC,-0.0319 ± 0.025
2,CACTCCAA,-0.00864 ± 0.094
3,CAAAAGTC,-0.0945 ± 0.015
4,ATAGCTCC,-0.134 ± 0.022
5,ATGGGAAA,-0.187 ± 0.074
6,ACCATAGT,-0.0904 ± 0.015
7,GTGTCTTA,-0.0232 ± 0.028
8,GCTATACA,-0.126 ± 0.025
9,GTAAACAA,0.073 ± 0.035
10,CGCCATCC,-0.0495 ± 0.066
11,AACGATGC,0.0167 ± 0.089
12,AGTTTCAA,-0.256 ± 0.043
13,CTCAATGC,-0.0497 ± 0.021
14,ATGTTGAA,-0.107 ± 0.017
15,AAACGAGT,0.0158 ± 0.00093
16,AGCTCCTC,-0.184 ± 0.07
17,CCGTGCCC,-0.16 ± 0.0037
18,TCCACGAA,-0.215 ± 0.054
19,GACATTAA,-0.133 ± 0.023
20,CATGAGGA,-0.268 ± 0.024
21,CCCCACGA,0.119 ± 0.053
22,CGACTTGC,0.161 ± 0.025

row,Sequence,PBM E-score of 8-mer
1,TACAGCTA,-0.247 ± 0.0038
2,ACGCAAAT,0.0354 ± 0.031
3,CGTGAAAC,0.339 ± 0.022
4,ACAATGAT,0.0456 ± 0.019
5,GTGAGGAA,0.331 ± 0.0099
6,TCGGGCAA,0.0653 ± 0.066
7,GTTGCGAA,0.389 ± 0.015
8,AGACAGCG,0.00298 ± 0.045
9,GTCGGTAA,0.0974 ± 0.0095
10,CGCACGGC,0.105 ± 0.0061
11,ATATAAAC,-0.147 ± 0.022
12,AGTCGGCC,-0.0555 ± 0.065
13,GGGTTTAA,0.00807 ± 0.021
14,CTTACCAC,0.229 ± 0.012
15,GAGGAATC,-0.0116 ± 0.0027
16,AATAACCA,-0.185 ± 0.08
17,AATACAAC,-0.0847 ± 0.091
18,ATGATTAC,-0.0745 ± 0.038
19,AGCCAGTA,-0.156 ± 0.014
20,AAATAAAA,-0.0184 ± 0.16
21,ACATTCAG,0.03 ± 0.05
22,TAGATATA,-0.172 ± 0.085

row,Sequence,PBM E-score of 8-mer
1,ATAGCCTA,-0.12 ± 0.028
2,ATAACGGA,-0.205 ± 0.031
3,AGGCTTAT,-0.14 ± 0.1
4,CGTGCAAC,0.0398 ± 0.03
5,GTCTTAGA,-0.156 ± 0.026
6,GCTGCTAA,0.0962 ± 0.071
7,AATACAGG,-0.0818 ± 0.028
8,GTTGGCTA,-0.088 ± 0.018
9,ACGCGCCC,-0.0239 ± 0.011
10,AACAGATC,0.164 ± 0.015
11,GGGTTACC,-0.264 ± 0.039
12,CCATTATC,-0.0869 ± 0.063
13,CCAGTCCG,-0.0865 ± 0.046
14,TAATCAGA,-0.153 ± 0.043
15,CATTTCAC,0.25226 ± 2.1e-05
16,GCCCTCAC,0.0547 ± 0.05
17,CTCCGCAC,-0.0133 ± 0.13
18,CATCTGCC,-0.176 ± 0.007
19,AACTGCTC,-0.136 ± 0.0067
20,CCTGGGGC,-0.12 ± 0.085
21,ACATGAAT,0.0781 ± 0.029
22,CGCTCTCC,-0.255 ± 0.065

row,Sequence,PBM E-score of 8-mer
1,CCCCTCCA,0.0448 ± 0.012
2,ACGATGGG,-0.111 ± 0.034
3,CTATAACA,0.182 ± 0.06
4,AGATTCCC,0.00762 ± 0.068
5,ATACGCGG,-0.0632 ± 0.028
6,AGGGACTG,-0.228 ± 0.026
7,ACGATTAG,-0.0224 ± 0.084
8,GTGTTTAA,0.159 ± 0.061
9,GCAAAAGA,-0.0507 ± 0.0089
10,ATAGCCCG,-0.243 ± 0.0037
11,AAGTGATT,0.107 ± 0.022
12,ATTCCTCC,-0.291 ± 0.034
13,CTAACGAA,0.24 ± 0.019
14,GGGTGAAC,-0.076 ± 0.04
15,CTGTTCGA,0.0476 ± 0.057
16,ATAGACCG,-0.371 ± 0.046
17,CTGTTGCC,0.0226 ± 0.04
18,GACTTTTA,-0.16 ± 0.013
19,CTTCGCTC,0.00268 ± 0.066
20,GGTTAATA,-0.0488 ± 0.1

# Reference: the supplement of paper PMC4166925
